Data published in PubChem BioAssay AID652154 (Broad Institute, 2013).
Among all 360,000 compounds or so, about 4,200 (1.2%) were called active. The shares of active, inactive and inconclusive entries below differ from those in the screen.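 Rule for the calls: active = mean replicate inhibition at least 60% with every replicate also reaching 60%; inconclusive = only one of the two criteria is met; inactive = mean below 60% and not all replicates reaching 60%.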

Assay: inhibitors of PAX8-driven TPO luciferase reporter, primary screen, RMG-I cells, single concentration (AID 652154);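 note: luciferase light reporting Pax8 driven TPO promoter activity; plate controls were median of neutral control wells for no effect and mitoxantrone controls for full effect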
Conditions: SteadyGlo, 24 h, at 12.6 µM, hits give high values

Row | Compound | inhibition
1 | CCCn1c(=O)c2[nH]cnc2n(-c2ccccc2C)c1=O | inactive: -2.49%
2 | COc1cccc(-n2nc(C#N)c(Cl)cc2=O)c1 | active: 98.2%
3 | CN1/C(=C\C=C2/SC(=S)NC2=O)C(C)(C)c2ccccc21 | inconclusive: 61.3%
4 | Cc1ccccc1N=Cc1cc2c(cc1O)OC(N)=C(C#N)C2c1ccccc1 (stereo not given) | inconclusive: 62%
5 | CC(=O)c1cccc(-c2ccnc3c2CC(C(=O)NCc2ccc(F)c(F)c2)O3)c1 (stereo not given) | inconclusive: 61.8%
6 | C[C@H]1CCCCO[C@H](CN(C)Cc2ccc(Cl)c(Cl)c2)[C@@H](C)CN([C@@H](C)CO)C(=O)c2cc(NC(=O)Cc3ccccc3)ccc2O1 | inconclusive: 66.1%
7 | CCN(CC)c1ccc(/C=N/NC(=O)c2cccc(S(=O)(=O)N3CCOCC3)c2)c(O)c1 | inconclusive: 62.7%
8 | CC(C)C#Cc1ccc([C@H]2[C@@H](CO)N3C(=O)CN(S(=O)(=O)c4ccccc4)C[C@H]23)cc1 | inconclusive: 61%
9 | CCCCCCCCCn1ccc(=N)cc1 | inconclusive: 61.2%
10 | COC(=O)COc1ccc(/C=N/NC(=O)c2ccc(N(Cc3ccccc3)S(C)(=O)=O)cc2)cc1 | active: 61.8%
11 | CC[C@@H](C)[C@@H]1CN([C@@H](CN2CCC[C@H]2CN2C(N)=NC[C@H]2CC(C)C)C(C)C)C(=N)N1CCc1ccc(Cl)c(Cl)c1 | inconclusive: 61.4%
12 | C[C@H]1CCCCO[C@H](CN(C)C(=O)Nc2ccc(F)cc2)[C@@H](C)CN([C@@H](C)CO)C(=O)c2cc(NC(=O)Nc3ccc(C(F)(F)F)cc3)ccc2O1 | active: 83.8%
13 | C[C@@H]1CN([C@H](C)CO)C(=O)c2cccc(NC(=O)CCCCCC(=O)Nc3ccccc3N)c2O[C@H]1CN(C)Cc1ccc(C(F)(F)F)cc1 | inconclusive: 60.3%
14 | CC1CCCC(NCC(O)COC(c2ccc(F)cc2)c2ccc(F)cc2)C1C (stereo not given) | inconclusive: 61.2%
15 | CS(=O)(=O)Nc1ccc2c(c1)[C@@H]1C[C@@H](CC(=O)O)O[C@@H](CO)[C@@H]1O2 | inactive: -11.6%
16 | CSc1nc2ccc(NC(=O)C3=NNC(=O)CC3)cc2s1 | inactive: -1.5%
17 | Nc1ccccc1S(=O)(=O)NC1=NCCCCC1 | inactive: -23.2%
18 | O=C1NC(Cc2ccc(O)cc2)c2nc3ccc(Br)cc3c(=O)n2-c2cc3ccccc3cc21 (stereo not given) | inconclusive: 67.5%
19 | COc1ccc(C#Cc2ccc3c(c2)O[C@@H](CN(C)C(=O)Nc2cccc(OC)c2)[C@H](C)CN([C@@H](C)CO)S3(=O)=O)cc1 | inconclusive: 62.5%
20 | N#C[C@H]1[C@H](c2ccc(-c3ccccc3F)cc2)[C@@H](CO)N1C(=O)Cc1ccccc1 | inconclusive: 62.2%
21 | O=C(NCC[C@@H]1CC[C@H](NS(=O)(=O)Cc2ccccc2)[C@H](CO)O1)C1CCOCC1 | inactive: -7.55%
22 | O=C1O[C@H](c2ccccc2)[C@H](c2ccccc2)N2[C@H]1[C@@H](C(=O)N1CCCCCCC1)[C@]1(C(=O)Nc3ccc(C#CC4=CCCCC4)cc31)[C@H]2c1ccccc1OCCO | inconclusive: 60.2%
23 | CCSC(=O)N1c2ccc(OC)cc2C=CC1C#N (stereo not given) | inconclusive: 61.7%
24 | COc1ccc(S(=O)(=O)Nc2ccc3c(c2)C(=O)N([C@H](C)CO)C[C@H](C)[C@H](CN(C)S(=O)(=O)c2ccc(Cl)cc2)OCCCC[C@H](C)O3)cc1 | inconclusive: 61.5%

Row | Compound | inhibition
25 | COc1ccc([C@H]2CC(=O)C=C(c3ccccc3-c3ccccc3)C2)cc1 | inconclusive: 65.2%
26 | COc1ccc(N2CCN(CC(=O)Nc3ccccc3C(=O)NCc3ccccc3)CC2)cc1 | inactive: 14.3%
27 | CCC(C)(C)c1ccc(Oc2ccc(N)cc2)cc1 | inconclusive: 64.7%
28 | Cc1ccc(Sc2ccc(CN3CCCC3)cc2[N+](=O)[O-])cc1 | inactive: -2.99%
29 | Cc1cc(C)cc(OCC(=O)N/N=C/c2ccccn2)c1 | inconclusive: 65.2%
30 | Fc1ccc(/C=N/Nc2ccccn2)cc1 | inactive: -133%
31 | CNC(=O)C[C@H]1CC[C@H]2[C@H](COc3ccc(NC(=O)Nc4cccc(F)c4)cc3C(=O)N2C)O1 | inactive: -16.3%
32 | CCc1ccc(NC(=O)c2cc(C)no2)cc1 | inactive: -141%
33 | C[C@@H]1CCCCO[C@H](CN(C)C(=O)Nc2ccc(C(F)(F)F)cc2)[C@H](C)CN([C@@H](C)CO)C(=O)c2cc(NS(=O)(=O)c3ccccc3)ccc2O1 | inconclusive: 62.1%
34 | Oc1ccc(C[C@H]2CNC(=S)N2CC2CCCN2C[C@H](Cc2ccc(O)cc2)N2C[C@H](Cc3ccccc3)N(CC3CCCCC3)C2=S)cc1 (stereo not given in full) | active: 86.9%
35 | COc1ccc(NC(=O)N(C)C[C@H]2Oc3cc(C#CCC(C)C)ccc3S(=O)(=O)N([C@H](C)CO)C[C@H]2C)cc1 | active: 71.6%
36 | C=CCNc1nc(-c2ccccn2)nnc1-c1ccccc1 | inconclusive: 61.5%
37 | COc1ccc(NC(=O)Nc2ccc3c(c2)[C@@H]2C[C@H](CC(=O)NCc4ccc(-c5ccccc5)cc4)O[C@@H](CO)[C@@H]2O3)cc1 | inconclusive: 61%
38 | CN1C(=O)c2cc(NC(=O)c3cccc(Cl)c3)ccc2OC[C@@H]2O[C@@H](CC(=O)NC3CCCCC3)CC[C@@H]21 | inconclusive: 65.2%
39 | N#C[C@@H]1[C@@H](c2ccc(-c3ccccc3F)cc2)[C@@H](CO)N1C(=O)C1CCC1 | active: 81.5%
40 | CC(C)(C)c1nnc(NC(=O)CCS(=O)(=O)Cc2ccccc2)s1 | active: 84.4%
41 | O=C(Nc1cccc(F)c1)N1CCCCN2[C@H](CO)[C@H](c3ccc(C#Cc4ccccc4)cc3)[C@H]2C1 | inconclusive: 83.4%
42 | Cc1noc(C)c1S(=O)(=O)N(C)C[C@H]1Oc2ccc(NC(=O)Nc3ccccc3)cc2CC(=O)N([C@H](C)CO)C[C@@H]1C | inconclusive: 61.4%
43 | N#C[C@@H]1[C@H](c2ccccc2-c2ccccc2)[C@H](CO)N1C(=O)Cc1cccnc1 | inactive: -2.55%
44 | O=C1Cn2nnc(-c3ccccc3)c2C2c3cc(Br)ccc3CCN12 (stereo not given) | inconclusive: 60.4%
45 | COc1ccc(-c2nsc3c(N4CCCCC4)ncnc23)cc1 | active: 75.5%
46 | N/C(=N\OC(=O)c1ccc([N+](=O)[O-])cc1Cl)c1ccccn1 | active: 67.8%
47 | COCC(=O)Nc1ccc2c(c1)C(=O)N(C)[C@@H]1CC[C@@H](CC(=O)NCC3CC3)O[C@H]1CO2 | inactive: 5.91%
48 | CC(=O)N/C(=C\c1ccccc1)C(=O)OCC(=O)NC1CCCC1 | active: 150%

Row | Compound | inhibition
49 | O=C(N1CCN(c2ccccn2)CC1)N1c2ccccc2Sc2ccccc21 | inconclusive: 60.2%
50 | CCCNC1(C(N)=O)CCN(Cc2ccccc2)CC1 | inconclusive: 73.6%
51 | CC(C)CC#Cc1ccc2c(c1)O[C@H](CN(C)Cc1ccccn1)[C@@H](C)CN([C@@H](C)CO)S2(=O)=O | active: 60.8%
52 | CCCC(=O)Nc1nc(C)c(-c2csc(Nc3ccccc3OC)n2)s1 | inactive: 2.31%
53 | CCOC(=O)C(C)Oc1cccc2c(=O)n(CC(=O)NCc3ccccc3)ccc12 (stereo not given) | inconclusive: 63.1%
54 | COc1ccc(S(=O)(=O)Nc2ccc3c(c2)C(=O)N([C@H](C)CO)C[C@@H](C)[C@H](CN(C)S(=O)(=O)c2ccc(C)cc2)OCCCC[C@H](C)O3)cc1 | inconclusive: 62%
55 | COc1ccc(NC(=O)N2CCCCN3[C@H](CO)[C@H](c4ccc(C#Cc5ccccc5)cc4)[C@H]3C2)cc1 | active: 82%
56 | CN[C@H]1CCc2cc(OC)c(OC)c(OC)c2-c2ccc(N(C)CC(OC)OC)c(=O)cc21 | inconclusive: 65.3%
57 | COc1ccc(S(=O)(=O)Nc2ccc3c(c2)C(=O)N([C@@H](C)CO)C[C@H](C)[C@@H](CN(C)S(=O)(=O)c2ccc(C)cc2)OCCCC[C@H](C)O3)cc1 | inconclusive: 61.8%
58 | COc1cc(NC(=O)c2csc(N)n2)cc(C(=O)Nc2cccc(C(F)(F)F)c2)c1 | inconclusive: 61.7%
59 | COc1ccc(C2CC(c3ccc(Br)cc3)=NN2C(=O)CN2CCCC2)cc1 (stereo not given) | inconclusive: 67.8%
60 | CC(=O)NC(c1cccs1)c1cc(Br)c2cccnc2c1O (stereo not given) | inconclusive: 61.4%
61 | C=C1CC2C(CCC3(C)C2CCC3(O)C(C)=O)C2(C)CCC(=O)C=C12 (stereo not given) | inconclusive: 61.6%
62 | CCCN(C)C[C@@H]1OCCCC[C@@H](C)Oc2ccc(NC(=O)Nc3ccc(F)cc3)cc2C(=O)N([C@H](C)CO)C[C@H]1C | inconclusive: 61.4%
63 | O=C(CCNS(=O)(=O)c1ccccc1C(F)(F)F)N1CCN(C(c2ccccc2)c2ccccc2)CC1 | inconclusive: 61.1%
64 | COc1ccc(C#Cc2ccc([C@H]3[C@H](CO)N4CCCCN(C(=O)Nc5cccc(F)c5)C[C@@H]34)cc2)cc1 | inconclusive: 62.2%
65 | C(#Cc1ccccc1)C[N+]1(CC#Cc2cccc3ccccc23)CCCC1 | active: 63.4%
66 | O=C(Nc1cccc(-c2csc(Nc3cccc(C(F)(F)F)c3)n2)c1)c1ccccc1 | inconclusive: 60.6%
67 | C[C@@H]1CN([C@@H](C)CO)C(=O)c2cc(NC(=O)Nc3cccc4ccccc34)ccc2O[C@@H]1CN(C)C(=O)Nc1cccc2ccccc12 | inconclusive: 62.1%
68 | CC(C)(O)C#Cc1ccc([C@@H]2C[C@H]3CN(c4ccccc4)C(=O)[C@]34CCCN24)s1 | inconclusive: 61.1%
69 | C[C@@H]1CN([C@@H](C)CO)C(=O)c2cc(NC(=O)Nc3ccc(C(F)(F)F)cc3)ccc2O[C@@H](C)CCCCO[C@H]1CN(C)Cc1ccncc1 | active: 86.3%
70 | CCCC#Cc1ccc2c(c1)[C@@H]1[C@@H](CCN1S(=O)(=O)c1cccc(F)c1)[C@@H](CO)N2C | active: 66.6%
